# Data as given in PubChem BioAssay AID2676 (National Center for Advancing Translational Sciences (NCATS), 2010).
# Hit rate of the full screen: of about 370,000 compounds, about 1,100 (0.3%) were called active. The inconclusive results got no clear call from the source; some entries with a clear call stand among them for comparison. Calls follow the shape of the dose curve; as a rule, active = well fitted activation curve with a large enough effect; inconclusive = small, poorly fitted or top-dose-only effect; inactive = flat fitted curve, though single readings scatter. Potencies beside an inconclusive call are fits to weak or partial responses and may not hold up.
# Biological target: Relaxin receptor 1 (Homo sapiens) (UniProt Q9HBX9)
# Test: qHTS Assay for Agonists of the Relaxin Receptor RXFP1; also: nearly all actives have a fitted effect of over 60% in size
# Conditions: HEK293T-RXFP1 cAMP TR-FRET, 30 min; series mostly up to 57.5 µM
# Summary of the method: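 HEK293 cells stably expressing RXFP1, treated 30 min at 37C with compounds plus PDE4 inhibitor Ro 20174; cAMP measured by HTRF TR-FRET. Normalized to buffer and 29 nM porcine relaxin; EC50 by Hill fit.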
# Potency is read from the fitted curve at half-maximal effect; tags tell the direction and shape of the fitted curve.
# Chain of UniProt Q9HBX9 (Q9HBX9 whole entry, looked up): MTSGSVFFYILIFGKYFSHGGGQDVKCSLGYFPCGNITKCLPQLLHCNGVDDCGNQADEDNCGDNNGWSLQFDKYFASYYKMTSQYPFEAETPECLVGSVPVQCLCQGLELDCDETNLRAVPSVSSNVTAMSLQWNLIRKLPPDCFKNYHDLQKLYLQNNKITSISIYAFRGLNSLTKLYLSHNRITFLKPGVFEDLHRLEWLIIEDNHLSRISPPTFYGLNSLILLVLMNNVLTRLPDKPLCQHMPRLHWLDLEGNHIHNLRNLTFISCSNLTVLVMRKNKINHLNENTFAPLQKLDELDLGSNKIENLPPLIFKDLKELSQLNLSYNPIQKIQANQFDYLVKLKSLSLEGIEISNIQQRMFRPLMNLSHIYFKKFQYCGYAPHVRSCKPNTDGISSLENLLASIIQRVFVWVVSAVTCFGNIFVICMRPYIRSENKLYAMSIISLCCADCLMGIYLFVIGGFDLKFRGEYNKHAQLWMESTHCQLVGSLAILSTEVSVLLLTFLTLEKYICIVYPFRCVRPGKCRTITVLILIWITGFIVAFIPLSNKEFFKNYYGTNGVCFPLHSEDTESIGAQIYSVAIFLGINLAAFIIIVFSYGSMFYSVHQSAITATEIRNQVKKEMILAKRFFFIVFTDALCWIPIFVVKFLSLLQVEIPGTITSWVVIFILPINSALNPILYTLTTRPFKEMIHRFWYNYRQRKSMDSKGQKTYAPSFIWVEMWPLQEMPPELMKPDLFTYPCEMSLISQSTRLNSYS
row,Compound,Potency
1,COc1ccc(C(=O)Nc2ccc(S(=O)(=O)Nc3onc(C)c3C)cc2)c(OC)c1,"inconclusive: 14.1 µM [activator, partial curve]"
2,CCN1CCN(c2nc3c(C)cccn3c(=O)c2/C=C(\C#N)C(=O)NCCOC)CC1,active: 25.1 µM
3,CCc1ccc(NC(=O)c2sc(-n3nc(C)c(Cc4ccc5c(c4)OCO5)c3C)nc2C)cc1,"inconclusive: 31.6 µM [activator, single point]"
4,CCOP1(=O)OCC2OC(n3cnc4c(N)ncnc43)C(O)C2O1 (centres undefined),active: 10 µM
5,COc1ccc(S(=O)(=O)N2CCCCCC2)cc1C(=O)Nc1ccc(C)cn1,"inconclusive: 35.5 µM [activator, single point]"
6,O=C(Nc1ccc(C(=O)O)cc1)/C(=C\C=C\c1ccccc1)NC(=O)c1cccc(Br)c1,inactive
7,COc1cccc(C(=O)NC2=NC(c3ccccc3F)CC(=O)N2)c1 (centres undefined),"inconclusive: 31.6 µM [activator, single point]"
8,COCCNC(=O)C(OC(=O)c1nsc(Cl)c1Cl)C(C)C (centres undefined),active: 17.8 µM
9,CCN(CC)CCN1C(=O)C(O)=C(C(=O)c2cc3cccc(OC)c3o2)C1c1cccs1 (centres undefined),"inconclusive: 28.2 µM [activator, partial curve]"
10,CC(C)(C)c1ccc(-c2nnc(NC(=O)c3ccccc3)s2)cc1,"inconclusive: 31.6 µM [activator, single point]"
11,CCOC(=O)N1CCN(C(=O)CSc2ccc3nnc(-c4ccccn4)n3n2)CC1,"inconclusive: 14.1 µM [activator, partial curve]"
12,O=Cc1cc2ccccc2nc1SCc1ccc(Cl)cc1,"inconclusive: 31.6 µM [activator, partial curve]"
13,COc1ccc(NC(=O)Cn2c(=O)n(Cc3ccco3)c(=O)c3sc4ccccc4c32)cc1Cl,"inconclusive: 39.8 µM [activator, single point]"
14,CCn1c(SCC(=O)Nc2ccccc2C(=O)OC)nnc1-c1cccc(C)c1,inactive
15,CC(C)c1ccc(N(C(=O)c2csnn2)C(C(=O)NC(C)(C)C)c2cccnc2)cc1 (centres undefined),inactive
16,COc1ccc(-c2[nH]ncc2CN2CCN(C(=O)c3cccs3)CC2)c(F)c1,"inconclusive: 22.4 µM [activator, partial curve]"
17,COc1cccc(-n2c(C)nc3c(cnn3-c3ccc(C)c(C)c3)c2=O)c1,inactive
18,COc1ccc(NC(=O)Cn2c(=O)n(Cc3ccccc3Cl)c(=O)c3cc(OC)c(OC)cc32)cc1,"inconclusive: 28.2 µM [activator, partial curve]"
19,O=S(=O)(c1ccccc1)c1cnc(-c2cccnc2)nc1-c1ccc(Cl)c(Cl)c1,"inconclusive: 31.6 µM [activator, single point]"
